Experimental findings from the supplement of paper PMC10126150 are described below.

Values marked as one replicate rest on one cluster of the flow cell; about a third of the high ones do not repeat.
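Note: ATP exposure 15 min at 22 °C before imaging.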

This data set deals with ATP. The data set is described as follows: switch fluorescence ratio, 500 uM ATP over buffer (Cy3 cluster intensity, sum of 5 cycles each) (fold (ratio)); higher = stronger signal-on switching upon ATP binding; sequences stand for … in TCGTCGGCAGCGTCAGATGTGTATAAGAGACAGTTTTTTTTTTTTTTTTTTTTTTTTT…TC. The conditions noted are these: aptamer strand: ATP DNA aptamer (quencher-CACCTGGGGGAGTATTGCGGAGGAAGG + anchor), 100 nM annealed; ATP concentration: 500 uM; one replicate. In outline:
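The fluorescence ratio divides summed target-cycle Cy3 intensity by summed buffer-cycle Cy3 intensity for each cluster and is averaged per switch-domain sequence. Cy3-labelled switching-strand clusters on a modified Illumina MiSeq flow-cell were annealed to 100 nM quencher-labelled ATP aptamer, then imaged in selection buffer and again after 15 min with 500 uM ATP at 22 °C. Five such cycles were run, with NaOH stripping and re-annealing between them, and clusters outside 100-1000 RFU were excluded.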
Consider AGCTCTTGAC, for which the switch fluorescence ratio turned out to be 1.04.
The figure for GGGGAGAGCC is 0.989.
On to AAGTACTGTA, for which the switch fluorescence ratio stood at 1.26.
On to GATGTGACCG, for which the switch fluorescence ratio stood at 0.953.
On to AAGGGGTGCC, for which the switch fluorescence ratio came out at 0.976.
Then GTCGCAGGGC, with 1.44.
For AAGGAAGTAT, the switch fluorescence ratio amounted to 1.03.
In the case of CCTTTCGACG, the switch fluorescence ratio is 1.03.
TGTCGTTATG: the switch fluorescence ratio was 0.949.
On to TGGCGCCGCC, for which the switch fluorescence ratio was 0.987.
Then CCGGGTGGAG, with 1.08.
Then AGCACAGACC, with 1.22; and CTGTGGTAAC, with 0.957.
GCGAAATAAC: the switch fluorescence ratio was determined as 1.27.
The figure for GTTGCTAGTT is 0.995; for ATGGGGTACT it is 1.03.
Take TCGCAGTTT: the switch fluorescence ratio is 1.05.
Then AAACAGATAT, with 1.03; and GATTGCATTC, with 1.14; and ACATGTTTGC, with 1.04.
On to GGAGGTAGAG, for which the switch fluorescence ratio is 0.937.
Take AATAGCATCT: the switch fluorescence ratio was determined as 1.
As for TTTGTTATAA, the switch fluorescence ratio was 1.01.
Then TATAGATTC, with 0.979; and AAGGAGGTGG, with 1.1.
Take GGGGTTCTGG: the switch fluorescence ratio was determined as 0.968.
As for AATTGCTCGC, the switch fluorescence ratio came out at 1.05.
Then TCTTCGAGAC, with 1.3.
Consider TCATCATCTT, for which the switch fluorescence ratio turned out to be 0.99.
As for GAAGATGCGC, the switch fluorescence ratio stood at 0.979.
Then GCAGTGAAGG, with 1.05.
Then ATGGGCCGGT, with 0.992.
The figure for GGTGAACAGA is 0.994; for GCAGTGGGCT it is 1.02.
For the sequence AGCGCAGTGG, the switch fluorescence ratio amounted to 1.
With AATTTTGTAT, the switch fluorescence ratio was 1.01.
As for CTGTTGTGAG, the switch fluorescence ratio worked out at 0.983.
Then CTGCCTTAAT, with 1.02; and TCCCGGCTCT, with 1.08; and TTCTATAGAA, with 0.971.
The figure for GTCCTACAA is 1.04; for CTTAGCGCGC it is 1.03; for ATTACTTGAA it is 1.02.
Then GAAGCGTTC, with 1.38.
Regarding GGGATTAAT, the switch fluorescence ratio is 0.982.
Consider CTTTTTACTA, for which the switch fluorescence ratio is 1.03.
The figure for ATTCTGGAAG is 0.995.
Turning to TTGTATACTA, the switch fluorescence ratio was found to be 0.99.
For the sequence TGTGGGTGA, the switch fluorescence ratio was found to be 1.06.
For GGCACTCGG, the switch fluorescence ratio came out at 0.994.
The figure for GCCGCCAAGC is 1.45; for TGCAGAGGCA it is 1.03; for AACAGAAAAT it is 0.996.
Then ATGGTTTCTA, with 0.953; and TAGTTAGAGG, with 1.02.
As to GGGTCGCCAC, the switch fluorescence ratio is 0.996.
On to TTCTCGTGAT, for which the switch fluorescence ratio is 2.25.
The figure for TCCACCTGTT is 1.09.
The figure for GACTTACTAT is 1.1; for CGGGTGGTT it is 0.995; for AAGTTTAC it is 1.03.
On to GCAGGTCTTT, for which the switch fluorescence ratio stood at 0.977.
Then TTACGATTCG, with 0.975.
With GATAAAATCG, the switch fluorescence ratio was found to be 1.01.
The figure for GGTACGGATT is 0.987.
Regarding TAGCAGTCAG, the switch fluorescence ratio was 1.02.
Then GGGCATACAC, with 1.14.
The figure for ATTTTAACCT is 1.95.
Then AAGTGGCCGA, with 0.968; and ACATCCTGGG, with 1.05.
Take GCTAATCTCA: the switch fluorescence ratio worked out at 1.06.
On to CGAGTTATAC, for which the switch fluorescence ratio was 1.34.
The figure for ATTAACCAGT is 1.03; for GATCTTAGAT it is 0.984.
Then GACCGCTACA, with 1.49.
The figure for GGCCGGAACT is 1.07; for GGATGGCGGG it is 1.05.
For ACCGCAGGGT, the switch fluorescence ratio is 0.99.
Turning to CTCATGCATC, the switch fluorescence ratio is 2.54.
Then AATCGACATC, with 1.02; and TCTAAGTGAA, with 1.02.
The figure for AGGGTATATG is 0.982; for GCTAGGAAAT it is 1.
On to AGCGATGTGT, for which the switch fluorescence ratio is 0.98.
GTAGGCAATG: the switch fluorescence ratio turned out to be 1.03.
The figure for ACAATTAAA is 1.01; for CGGAATTAAA it is 0.98; for TGCTGGTGTG it is 1.03.
Then ACAGCGCCAT, with 0.97; and AGTGAGCGCC, with 0.98; and TCAGTACCGA, with 0.997.
Take TGATAACAGT: the switch fluorescence ratio was 1.03.
Then AGGGACGATT, with 0.981; and TCGGGTAGCG, with 1.01.
Turning to TGCACAAGTC, the switch fluorescence ratio amounted to 1.04.
With GAGCCGGAAA, the switch fluorescence ratio turned out to be 0.999.
Take GCTCACTGG: the switch fluorescence ratio was 1.05.
Then AGTAGGCAGG, with 1.04.
ACGTGACGCG: the switch fluorescence ratio was found to be 0.989.
The figure for GATGGCGAAC is 1.05.
Consider CTTTACGCCA, for which the switch fluorescence ratio is 1.22.
On to TTACTTATGC, for which the switch fluorescence ratio was 1.02.
Then CGGGCACGCC, with 0.999.
Then CATGTGGGA, with 0.99.
As for TATCGCAATA, the switch fluorescence ratio is 3.4.
The figure for AATGAGAGGG is 0.94; for GATCTTTCCC it is 0.995.
Then TCTGAAGAGA, with 1.02; and ATTGTAACTA, with 1.04; and GGATTTAGAG, with 1.02.
The figure for ACAAAAGGTT is 1.04; for CCGGCGAATC it is 3.44; for CGTGGGTAGG it is 1.04.
As to GTTGTGTGAA, the switch fluorescence ratio stood at 0.958.
GAAGAGGCGG: the switch fluorescence ratio was 0.987.
The figure for TTACTCGATT is 1.15; for AGGGTTATA it is 0.997.
Then GCCATTTGGA, with 1.03; and GTTAGTGGGT, with 0.984; and TACGCGATTG, with 1.1.
